Data set [1] deals with NCI-H1373 cells. The data set can be described thus: Lung cancer NCI-H1373 in vivo model. Set-up: species or system Balb/c nude mice. Particulars: 10 mg/kg. The method, then:
Lung cancer NCI-H1373 in vivo model: 5x10^6 NCI-H1373 cells were inoculated onto the backs of 6-week-old female Balb/c nude mice. On day 8, when the tumor volume reached ~200 mm^3, the animals were randomly grouped, with 10 tumors per group. Dosing was performed once weekly for a total of 2 doses (on days 8 and 15).

Data set [2] concerns HCC1806-luc cells. The data set is described as follows: HCC1806 intracranial model. The format is in vivo, Balb/c nude mice. To be noted: 5 mg/kg single dose via tail vein; compared to hIgG1-MMAE group. The method, then: An NCI-N87 intracranial model was established to evaluate 1-G07-LP5. NCI-N87-luc cells were resuspended in PBS and adjusted to a concentration of 1×10^8/mL. A microsyringe was used to draw 5 µL of the cell suspension (5×10^5 cells) for inoculation. Female Balb/c nude mice aged 6-7 weeks were anesthetized with Avertin and fixed on a brain stereotaxic instrument. Using the mouse's bregma as the center, the microsyringe needle was moved 2 mm to the right and 0.6 mm upward. After drilling through the skull with a triangular needle, the needle was inserted 4 mm downward, then withdrawn 1 mm, and the tumor cells were injected at a constant speed. […] 9 days later, D-luciferin (150 mg/kg) was injected intraperitoneally, and fluorescence images were acquired using a small animal fluorescence/CT in vivo imaging system to quantify the brain fluorescence signal intensity. Grouping was based on fluorescence signal intensity (Radiance (p/sec/cm^2/sr)) and mouse body weight. […] Fluorescence images were acquired every 1-2 weeks using the small animal fluorescence/CT in vivo imaging system to monitor brain fluorescence signal intensity (Radiance (p/sec/cm^2/sr)) and mouse body weight, and tumor growth curves were plotted.
An HCC1806 intracranial model was established to evaluate FD40-LP5. […] 7 days later, the mice were randomly grouped (n=4) based on fluorescence signal intensity and body weight. […]

A short description of data set [3]: Exploratory safety assessment in cynomolgus monkeys. In kind it is in vivo. The method, then: Two cynomolgus monkeys (one male and one female) were administered a single intravenous infusion of 10 mg/kg FD40-LP5, followed by continuous observation for 21 days. On day 22, a second intravenous infusion of 30 mg/kg FD40-LP5 was administered, followed by another 21 days of continuous observation (total 42 days).

The mark [4] stands for this setting: either dose level (10 mg/kg, 30 mg/kg).

B1: FD40-LP5 (conjugate)
chain: QVQLVESGGGLVKPGGSLRLSCTASETISSTYIMGWHRQAPGKGRELVAVISGDGVTHYADFVKGRFTISRDNAKNTVYLQMNFLRAEDTAVYYCYAAGRWNHWGQGTMVTVSS[letters of human IgG1 Fc with C220S (EU numbers) not shown]
Consider B1, for which, in data set [1] (once weekly for 2 doses), the “tumor suppression on day 32 (17 days after the last dose)” value was “maintained excellent tumor suppression effects”. Further, in data set [1] (once weekly for 2 doses (days 8 and 15), compared to hIgG1-MMAE control group), the tumor growth entry is “significantly inhibited tumor growth”. In addition, the “intracranial tumor growth (brain fluorescence signal)” value in data set [2] is “completely inhibited tumor growth or caused partial regression”. Besides, the body weight loss in data set [3] (during the experiment period, especially at the high dose, slight and reversible) was 5-10%. In data set [3] (setting [4]), the blood biochemical parameters result is reported as “no significant drug-related changes”, the blood coagulation parameters result is listed as “no significant drug-related changes” and the hematological parameters entry was “no significant drug-related changes”. In data set [3] (intravenous infusion 10 mg/kg, then 30 mg/kg on day 22), the “feeding and body weight indicators” value was “Slight and reversible fluctuations”. Further, the “clinical status of the animals” value in data set [3] (intravenous infusion 10 mg/kg, then 30 mg/kg on day 22, either dose level) is “no significant drug-related changes”.

The values above are taken from patent EP4732851A9, “LINKER, ANTIBODY-DRUG CONJUGATE, AND PREPARATION METHOD THEREFOR” (Fudan University, priority 2024, dated 2025).
